Data from the supplement of paper PMC10338343.
± gives the standard deviation. The list shows a part of the results, in another mix than the full data.

What follows are sequences tested on MIWI (PIWIL1) piRISC loaded with piRNA #1 (30 nt) (assay: pre-steady-state target cleavage rate (min^-1); MIWI and MILI are mouse PIWI proteins and EfPiwi is from a freshwater sponge; tags in brackets are library labels; higher = faster piRNA-guided slicing of the target). Conditions: guide: piRNA #1 5'p-UGAGGUAGUAGGUUGUAUAGUAUCCAGAGG; auxiliary factor: 500 nM mouse GTSF1.
Summary of the method: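 Three pooled Cleave-'n-Seq trials supplied the data, with k3 capped at 0.0001 min^-1. In each, […] transcribed, DNA-blocked target RNA library and 1 nM active affinity-purified piRISC with one synthetic guide reacted in HEPES–potassium acetate buffer at 33 °C for 0–8 or 0–960 min, with or without 500 nM GTSF1 partner protein. Uncleaved targets were sequenced and normalised to depth and to weakly complementary targets. A burst-and-steady-state fit provided the pre-steady-state cleavage rate.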
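Note: 1 nM active piRISC with 0.1 nM target library at 33 °C single turnover.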

Sequence | pre-steady-state target cleavage rate
GGAGACCAUACUAUACUACCUACAACCUCA | 0.241 ± 0.028
GGAGACCUUACUAUAGAACCUACUAGCUCA | 0.00437 ± 0.0042
GGACUGGAUACUAUAAAACCUACUACCUCA | 1.66 ± 0.13
GGAGACGAUACUAUACAACGUACUAGCUCA | 0.261 ± 0.067
GGAGAGGAUACUAUACAACCUUCUUCCUCA | 0.0139 ± 0.0045
CCUCAGGAUACUAUACAACCUAGUACCUCA | 0.13 ± 0.025
GGAGACGAUACUAUUCAACCUACUACCACA | 0.827 ± 0.057
CCUCUGGAUAGUAUACAACCUACUAGCUCA | 0.085 ± 0.021
CCUCUGGAUACUAUACAACCAUGUACCUCA | 0.0134 ± 0.0039
GGAGACCUAUGAUAUCAACCUACUGCCUCA | < 0.0001
GGAGAGGAUAGUAUACUACCUACUACCUCA | 0.0593 ± 0.011
GGAGACCUAACUAUACAACCUGCUACCUCA | 0.447 ± 0.044
GGACUGGUUACUUUACAACCUACUACCUCA | 1.23 ± 0.14
CCUCUGGAUACUAUACAUCCAACUACCUCA | 0.115 ± 0.019
GGAGACCUAUGUAUACAAGCUACUUCCUCA | 0.00535 ± 0.0024
GGAGACCUAUGAUAUGUACCUACUCCCUCA | < 0.0001
GGAGACCUAUCUAAUACAACCUACUACCUCA | 0.0462 ± 0.0099
GGAGACCUAUGUAUACAACCUAGUACCACA | 0.00838 ± 0.0025
GGAGAGGAUACUAUACAACCUACUUCGUCA | 0.00318 ± 0.0019
GGAGAGCAUACUAUACUACCUACUACCUCA | 1.07 ± 0.074

Sequence | pre-steady-state target cleavage rate
CCUCUGGUUACUAUACAUCCUACUACCUCA | 1.5 ± 0.066
GGAGACGAAACUAUACAACCUACUAGCUCA | 0.413 ± 0.061
GGAGACCUUACUAUACAACCAACUAGCUCA | 0.0315 ± 0.0059
GGAGUGAGAUACUAUACAACCUACUACCUCA | 1.77 ± 0.094
GGUGUGGAAACUAUACAACCUACUACCUCA | 1.65 ± 0.082
GGAGACCUAUGAUAUGUACGUACUUCCUCA | < 0.0001
GGAGAGGAUACUAUACAACCUACUACUCUCA | 0.704 ± 0.045
CCUCUGGAUACUAUUCAACCUUCUACCUCA | 0.624 ± 0.032
GGAGACCUAUGAUAUCAUCCUACUAGCUCA | < 0.0001
GGAGACGAUACUAUACAACCUACUAUCCUCA | 0.963 ± 0.053
GGAGUGCAUACAAUACAACCUACUACCUCA | 1.11 ± 0.092
GGACUGGAUUCUAUACAAGCUACUACCUCA | 1.1 ± 0.064
GGAGACCUAUCUAUACAACCUUGUACCUCA | 0.00593 ± 0.0026
GGAGUGGCUACUAUACAACCUACUACCUCA | 1.58 ± 0.076
GGAGACCUAACUAUACAUCCUUCUACCUCA | 0.05 ± 0.013
GGUCUGGAUACCAUACAACCUACUACCUCA | 1.68 ± 0.093
GGAGACCUAUGUAUAACAACCUACUACCUCA | 0.00609 ± 0.0039
GGAGAGGAUACUAUUGAACCUACUACCUCA | 0.773 ± 0.058
GGAGACCUAUGUAUACAACCAAGUACCUCA | 0.0024 ± 0.0022
GGUCUGGAUACUAUACAACCUACUACCGCA | 0.374 ± 0.035
